# Laboratory results reported in the supplement of paper PMC8728848.
# The other results are listed elsewhere or left out.
# B1: PfulAvr4 (Pseudocercospora fuligena) (protein)
# chain: HHHHHHDYKDDDDKTYVQDKTPAFVCPAADIKTTKCLGPKDCLYPSPKTCNGYIQCSPADDSYLTGIIHEMPCPSGLLWNDNKKWCDWPENTTCGLVKSAGATEVDATKQGPTPGKYHG
# What was measured:
# Experiment in all cases: glycan array binding signal (z-score within array); higher = stronger binding
# Conditions in all cases: glycan notation: IUPAC condensed, linker removed
# [1] = biological target: Gal(b1-4)GlcNAc(b1-3)Gal(b1-4)GlcNAc(b1-3)Gal(b1-4)GlcNAc(b1-3)Gal(b1-4)GlcNAc(b1-2)Man(a1-3)[Gal(b1-4)GlcNAc(b1-3)Gal(b1-4)GlcNAc(b1-3)Gal(b1-4)GlcNAc(b1-3)Gal(b1-4)GlcNAc(b1-2)Man(a1-6)]Man(b1-4)GlcNAc(b1-4)[Fuc(a1-6)]GlcNAc
# Summary of the method: (§1)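 Glycan array binding is given as a within-array Z-score, which can be read as non-binding when negative. The arrays, 3228 of them, came from the Consortium for Functional Glycomics database and were retained only where the protein sequence was available. Z-scores were averaged across arrays of the same protein sequence at different concentrations or buffers and across linkers.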
# [2] = biological target: Gal(b1-4)GlcNAc(b1-3)Gal(b1-4)GlcNAc(b1-3)Gal(b1-4)GlcNAc(b1-3)Gal(b1-4)GlcNAc(b1-2)[Gal(b1-4)GlcNAc(b1-3)Gal(b1-4)GlcNAc(b1-3)Gal(b1-4)GlcNAc(b1-3)Gal(b1-4)GlcNAc(b1-6)]Man(a1-6)[Gal(b1-4)GlcNAc(b1-3)Gal(b1-4)GlcNAc(b1-3)Gal(b1-4)GlcNAc(b1-3)Gal(b1-4)GlcNAc(b1-2)Man(a1-3)]Man(b1-4)GlcNAc(b1-4)[Fuc(a1-6)]GlcNAc
# Summary of the method: as §1
# [3] = biological target: Gal(b1-4)GlcNAc(b1-3)Gal(b1-4)GlcNAc(b1-3)Gal(b1-4)GlcNAc(b1-3)Gal(b1-4)GlcNAc(b1-3)Gal(b1-4)GlcNAc(b1-2)Man(a1-3)[Gal(b1-4)GlcNAc(b1-3)Gal(b1-4)GlcNAc(b1-3)Gal(b1-4)GlcNAc(b1-3)Gal(b1-4)GlcNAc(b1-3)Gal(b1-4)GlcNAc(b1-2)Man(a1-6)]Man(b1-4)GlcNAc(b1-4)GlcNAc
# Summary of the method: as §1
# [4] = biological target: Gal(b1-4)GlcNAc(b1-3)Gal(b1-4)GlcNAc(b1-3)Gal(b1-4)GlcNAc(b1-3)Gal(b1-4)GlcNAc(b1-3)Gal(b1-4)GlcNAc(b1-2)Man(a1-3)[Gal(b1-4)GlcNAc(b1-3)Gal(b1-4)GlcNAc(b1-3)Gal(b1-4)GlcNAc(b1-3)Gal(b1-4)GlcNAc(b1-3)Gal(b1-4)GlcNAc(b1-2)Man(a1-6)]Man(b1-4)GlcNAc(b1-4)[Fuc(a1-6)]GlcNAc
# Summary of the method: as §1
# [5] = biological target: Gal(b1-4)GlcNAc(b1-3)Gal(b1-4)GlcNAc(b1-3)Gal(b1-4)GlcNAc(b1-3)Gal(b1-4)GlcNAc(b1-3)Gal(b1-4)GlcNAc(b1-2)[Gal(b1-4)GlcNAc(b1-3)Gal(b1-4)GlcNAc(b1-3)Gal(b1-4)GlcNAc(b1-3)Gal(b1-4)GlcNAc(b1-3)Gal(b1-4)GlcNAc(b1-6)]Man(a1-6)[Gal(b1-4)GlcNAc(b1-3)Gal(b1-4)GlcNAc(b1-3)Gal(b1-4)GlcNAc(b1-3)Gal(b1-4)GlcNAc(b1-3)Gal(b1-4)GlcNAc(b1-2)Man(a1-3)]Man(b1-4)GlcNAc(b1-4)[Fuc(a1-6)]GlcNAc
# Summary of the method: as §1
# [6] = biological target: Gal(b1-4)GlcNAc(b1-3)Gal(b1-4)GlcNAc(b1-3)Gal(b1-4)GlcNAc(b1-3)Gal(b1-4)GlcNAc(b1-3)Gal(b1-4)GlcNAc(b1-3)Gal(b1-4)GlcNAc(b1-2)Man(a1-3)[Gal(b1-4)GlcNAc(b1-3)Gal(b1-4)GlcNAc(b1-3)Gal(b1-4)GlcNAc(b1-3)Gal(b1-4)GlcNAc(b1-3)Gal(b1-4)GlcNAc(b1-3)Gal(b1-4)GlcNAc(b1-2)Man(a1-6)]Man(b1-4)GlcNAc(b1-4)GlcNAc
# Summary of the method: as §1
# [7] = biological target: Gal(b1-4)GlcNAc(b1-3)Gal(b1-4)GlcNAc(b1-3)GalNAc
# Summary of the method: as §1
# [8] = biological target: Gal(b1-4)GlcNAc(b1-3)Gal(b1-4)GlcNAc(b1-3)[Gal(b1-4)GlcNAc(b1-3)Gal(b1-4)GlcNAc(b1-6)]GalNAc
# Summary of the method: as §1
# [9] = biological target: Gal(b1-4)GlcNAc(b1-3)Gal(b1-4)GlcNAc(b1-6)[Gal(b1-3)]GalNAc
# Summary of the method: as §1
# [10] = biological target: Gal(b1-4)GlcNAc(b1-3)Gal(b1-4)[Fuc(a1-3)]GlcNAc(b1-3)Gal(b1-4)[Fuc(a1-3)]GlcNAc
# Summary of the method: as §1
# [11] = biological target: Gal(b1-4)GlcNAc(b1-3)GalNAc
# Summary of the method: as §1
# [12] = biological target: Gal(b1-4)GlcNAc(b1-3)[Fuc(a1-3)GlcNAc(b1-6)]Gal(b1-4)Glc
# Summary of the method: as §1
# [13] = biological target: Gal(b1-4)GlcNAc(b1-3)[Gal(b1-4)GlcNAc(b1-6)]Gal(b1-4)GlcNAc
# Summary of the method: as §1
# [14] = biological target: Gal(b1-4)GlcNAc(b1-3)[GlcNAc(b1-6)]Gal(b1-4)GlcNAc
# Summary of the method: as §1
# [15] = biological target: Gal(b1-4)GlcNAc(b1-6)Gal(b1-4)GlcNAc
# Summary of the method: as §1
# [16] = biological target: Gal(b1-4)GlcNAc(b1-6)GalNAc
# Summary of the method: as §1
# [17] = biological target: Gal(b1-4)GlcNAc(b1-6)[Gal(b1-3)]GalNAc
# Summary of the method: as §1
# [18] = biological target: Gal(b1-4)GlcNAc(b1-6)[Gal(b1-4)GlcNAc(b1-3)]GalNAc
# Summary of the method: as §1
# Gal(b1-4)GlcNAc6P = biological target: Gal(b1-4)GlcNAc6P
# Summary of the method: as §1
# Gal(b1-6)Gal = biological target: Gal(b1-6)Gal
# Summary of the method: as §1
# Gal3S(b1-3)GalNAc = biological target: Gal3S(b1-3)GalNAc
# Summary of the method: as §1
# Gal3S(b1-3)GlcNAc = biological target: Gal3S(b1-3)GlcNAc
# Summary of the method: as §1
# [19] = biological target: Gal3S(b1-3)[Fuc(a1-4)]GlcNAc
# Summary of the method: as §1
binder,measurement,setting,value
B1,glycan array binding signal (z-score),[1],-0.135
same,glycan array binding signal (z-score),[2],0.06
same,glycan array binding signal (z-score),[3],0.012
same,glycan array binding signal (z-score),[4],0.048
same,glycan array binding signal (z-score),[5],-0.064
same,glycan array binding signal (z-score),[6],-0.109
same,glycan array binding signal (z-score),[7],-0.065
same,glycan array binding signal (z-score),[8],0.081
same,glycan array binding signal (z-score),[9],-0.067
same,glycan array binding signal (z-score),[10],-0.139
same,glycan array binding signal (z-score),[11],-0.096
same,glycan array binding signal (z-score),[12],-0.136
same,glycan array binding signal (z-score),[13],-0.169
same,glycan array binding signal (z-score),[14],1.21
same,glycan array binding signal (z-score),[15],0.05
same,glycan array binding signal (z-score),[16],-0.101
same,glycan array binding signal (z-score),[17],0.157
same,glycan array binding signal (z-score),[18],-0.051
same,glycan array binding signal (z-score),Gal(b1-4)GlcNAc6P,-0.097
same,glycan array binding signal (z-score),Gal(b1-6)Gal,-0.156
same,glycan array binding signal (z-score),Gal3S(b1-3)GalNAc,-0.101
same,glycan array binding signal (z-score),Gal3S(b1-3)GlcNAc,-0.036
same,glycan array binding signal (z-score),[19],0
